Assay results reported in PubChem BioAssay AID434955 (Southern Research Specialized Biocontainment Screening …, 2010).
The list shows a part of the results. Further columns of the screen follow, without active or inactive calls. Compounds called inactive in the main read-out are mostly missing here.

assay: beta-lactam sensitization of Mtb H37Rv, H37Rv (AID 434955);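 also: growth measured after seven days incubation then overnight dye step; 0% = bacteria only wells and 100% = bacteria with antibiotic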; details: M. tuberculosis H37Rv growth with meropenem, percent inhibition; measured here: primary screen without meropenem; at 25 µM

SMILES	inhibition [%]
CCc1ccc(NC(=S)Nc2ccc3cn[nH]c3c2)cc1	32
O=C(COc1ccccc1)N(Cc1cc2ccccc2[nH]c1=O)CC1CCCO1 (stereo unspecified)	-7.55
CCCc1cc(NC(=O)COC(=O)c2nccnc2N)n(-c2ccccc2)n1	51.6
Cc1ccc2nc(-c3ccc(NC(=O)c4ccco4)cc3)[nH]c2c1	2
Cc1ccc(OC(=O)NC2CCS(=O)(=O)C2)cc1C (stereo unspecified)	3.11
O=C(CSc1nnc(CNC(=O)c2ccccc2)o1)NCCc1ccccc1	9.21
CCOc1ccc(CN2CCC(n3nccc3NC(=O)c3ccccc3OC)CC2)cc1	0.48
O=C(COc1cccc2cccnc12)N/N=C/c1ccc(O)cc1	7.03
Nc1c(C(=O)NC2CC2)c2nc3ccccc3nc2n1-c1ccc2c(c1)OCO2	7.17
Cn1cc(Cl)cc(C(=O)Nc2ccccc2)c1=O	-2.53
CCOc1ccc(CCNC(=O)CSc2cc(=O)n(C)c3cc(Cl)ccc23)cc1OCC	10.6
O=S(=O)(c1ccc(Nc2ccc3c(c2)OCO3)nc1)N1CCOCC1	5.42
CCCN(CCC)C(=O)c1c(C)[nH]c(C(=O)OCC)c1C	-5.74
O=S(=O)(c1cccc(C(F)(F)F)c1)N1CCN(c2nnnn2-c2ccccc2)CC1	1.17
O=C(Nc1ccc2c(c1)OCO2)C1(S(=O)(=O)c2ccc(Cl)cc2)CC1	-3.81
O=C(N=C1SC2CS(=O)(=O)CC2N1CCc1ccccc1)C1CCCCC1 (stereo unspecified)	-1.13
CC1CN(C(=S)NC(=O)c2cccc([N+](=O)[O-])c2)CC(C)O1 (stereo unspecified)	50.2
CC#CC[N+](C)(C)CCCCCCCCCCCC	15.4
CCN(CC)S(=O)(=O)c1ccc(N2CCOCC2)c(NC(=O)c2cc(C)cc(C)c2)c1	7.72
CCOC(=O)c1cnc(COc2ccc(OC)cc2)[nH]c1=O	50
Cc1ccc(C(=O)Nc2ccccc2C(=O)N2CCCC(C)C2)cc1 (stereo unspecified)	-4.04
CC(=O)N1CCN(c2cccc(C)c2C)CC1	-6.33

SMILES	inhibition [%]
O=C(c1ccc(N2C(=O)c3ccccc3C2=O)cc1)N1CCCCC1	4.03
O=C(NC(=S)NC1CCCCC1)c1ccccc1	6.74
O=C(NCCc1cccnc1)C1CCC(=O)N(Cc2cccc(C(F)(F)F)c2)C1 (stereo unspecified)	0.81
CC(=O)c1c(C)[nH]c(C(=O)OCC(=O)Nc2nnc(-c3ccccc3)o2)c1C	49.6
O=C(Cc1ccc(Br)cc1)Nc1ccccc1N1CCCC1	6.06
CC12CCC(=O)N1C(C(=O)Nc1ccc(Br)cc1Cl)CS2 (stereo unspecified)	-2.87
S=c1[nH]nc(COc2ccccc2)n1/N=C/c1cccc(Cl)c1Cl	-1.79
COc1ccc(CCNC(=O)CN(c2ccccc2OC)S(C)(=O)=O)cc1	-4.02
CCCCOC(=O)n1c(SCC(=O)N(CC)CC)nc2ccccc21	5.01
CCOC(=O)CNC(=O)C1c2ccccc2C(=O)N(c2ccc(OC)cc2)C1c1ccc(OC)cc1 (stereo unspecified)	4.46
C=CCc1cccc(/C=N/NC(=O)C[n+]2ccccc2)c1O	-4.59
Nc1nonc1C(=O)NCCNCc1cc(Br)ccc1OCc1ccc(F)cc1	-7.21
O=C(CCS(=O)(=O)c1ccccc1)NCc1ccccc1	-5.08
Cc1c(N2C(=O)CS/C2=N\N=C\c2ccc(Cl)cc2)c(=O)n(-c2ccccc2)n1C	-1.56
CCO[C@@H]1OC(C(=O)NCc2nc3ccccc3[nH]2)=C[C@H](c2cn(C(C)=O)c3ccccc23)[C@H]1CCCO	3.29
Cc1ccc(/C=C2/SC(=S)N(CCC(=O)NCCCN3CCOCC3)C2=O)cc1	3.08
Cn1c(SCC(=O)c2c(N)n(C)c(=O)n(C)c2=O)nnc1-c1ccc(F)cc1	-3.14
Cc1cccc(OCC(=O)Nc2nonc2NC(=O)COc2cccc(C)c2)c1	6.78
CC(C)[C@H](NC(=O)OCc1ccccc1)C(=O)OCc1cc(=O)oc2cc(O)ccc12	5.09
CCn1ncc(Cl)c1C(=O)Nc1ccc2c(c1)CCC2	9.86
CN(Cc1nccn1C)C(=O)CC1C(=O)NCCN1Cc1ccc(F)cc1Cl (stereo unspecified)	-19.6
CC1CCN(C(=O)Cn2cc3c(n2)CCCC3)CC1	5.89

SMILES	inhibition [%]
CCCc1cc(C(=O)Nc2nccs2)cs1	85
CCN(C(=O)C(C)N1C(=O)/C(=C/c2cccs2)SC1=S)C1CCS(=O)(=O)C1 (stereo unspecified)	-6.97
O=C(CCc1c[nH]c2ccccc12)Nc1ncccc1O	-4.7
O=C(COC(=O)/C=C/c1cccc(Cl)c1)NCCc1ccc(Cl)cc1Cl	-1.67
COc1ccc(C(=O)NC2CC2)cc1OC1CCN(Cc2ccc(Cl)cc2)CC1	-1.52
Fc1ccc(C2CCNCC2COc2ccc3c(c2)OCO3)cc1 (stereo unspecified)	2.97
Cc1ccc(C(=O)NCCn2c(N)c(C#N)c3nc4ccccc4nc32)cc1	4.12
CCC(C)NC(=O)c1cn(CC)c2ccc(S(=O)(=O)N(C)C)cc2c1=O (stereo unspecified)	0.82
Cc1onc(NC(=O)NC(=O)c2ccccc2F)c1Br	-4.49
Cc1ccc(CN(CC(=O)NCc2ccccn2)S(=O)(=O)c2ccccc2)cc1	20
CCCCN(Cc1cc2cc(OC)ccc2[nH]c1=O)S(=O)(=O)c1ccc(C)cc1	-2.13
COc1ccc2oc(C(=O)OCC(=O)N3CCC(C)CC3)c(C)c2c1	4.58
Cc1noc(C)c1S(=O)(=O)N1Cc2ccccc2CC1C(=O)N(C)C (stereo unspecified)	-6.27
Cc1cc(C)c2nc(N3CCC(C(=O)NCC4CCCO4)CC3)sc2c1 (stereo unspecified)	6.48
CCNC(=O)COC(=O)C1C(C(=O)OCC)=C(C)NC(C)=C1C(=O)OCC	0.2
CN(Cc1cnn(C)c1)C(=O)C1CCC(=O)N(C2CCCCCC2)C1 (stereo unspecified)	1.01
COc1cccc(-c2nc3n(n2)C(c2ccccc2Cl)C(C(N)=O)=C(C)N3)c1 (stereo unspecified)	-7.98
N#CCCN1CCN(S(=O)(=O)c2ccc(S(=O)(=O)N3CCCCCC3)cc2)CC1	0.31
CCOC(=O)CNC(=O)/C(=C\c1ccc(F)cc1)NC(=O)c1ccccc1	-4.73
COC(=O)C(OC(=O)c1ccc(OC)cc1)C(=O)OC	-2.35
COc1cccc(C2Nc3c(F)cc(Br)cc3C3C=CCC32)c1OC (stereo unspecified)	-11.4
CCN(CC)S(=O)(=O)c1csc(C(=O)NC2CCCCC2)c1	0.88

SMILES	inhibition [%]
Cc1ccc2c(c1)N(CC(=O)NCCC1=CCCCC1)C(=O)c1cccnc1O2	-5.91
CCOc1cccc2sc(N(CCN(C)C)C(=O)c3ccc4ccccc4c3)nc12	4.92
CCn1c(SCc2nc(-c3cccs3)no2)nnc1-c1c[nH]c2ccccc12	1.66
CC(C)OCCCn1c(=S)[nH]c2cc3c(cc2c1=O)OCO3	-2.43
Cc1sc2ncnc(SCC(=O)N3CCCC(C(F)(F)F)C3)c2c1C (stereo unspecified)	4.98
CC(C(=O)Nc1sc2c(c1C(=O)NCc1ccco1)CCCC2)N1C(=O)c2ccccc2C1=O (stereo unspecified)	6.46
CN(Cc1ccon1)C(=O)CC1C(=O)NCCN1Cc1ccc(F)c(F)c1 (stereo unspecified)	-1.35
COc1ccc(NC(=O)c2oc3ccccc3c2NC(=O)C2CC2)c(OC)c1	3.68
Cc1nnc(NC(=O)c2sc3nc(-c4cccs4)cc(C(F)(F)F)c3c2N)s1	9.17
O=C(CCC(=O)N1CCOCC1)NCCc1ccc(Cl)cc1Cl	0.21
COc1cccc(C2CC(c3ccc(Cl)cc3)n3nc(N)nc3N2)c1 (stereo unspecified)	-4.85
CCN1CCCC1CNC(=O)Cn1nc(C)n2nc(-c3ccccc3)cc2c1=O (stereo unspecified)	-0.54
Cc1cc(=O)[nH]c2c(C)c(Cl)ccc12	-13
COc1ccc(C(=O)N2CCC(n3nccc3NC(=O)C3CCOC3)CC2)cc1 (stereo unspecified)	1.83
CNC(=O)c1c(NC(=O)C2=COCCO2)sc2c1CCC(C)C2 (stereo unspecified)	16.8
CCN(CC)S(=O)(=O)c1ccc(N/N=C(\C)c2ccc(OC)cc2O)nc1	11.6
CCCn1cc(S(=O)(=O)c2ccc(C)cc2)c(=O)c2cc(OC)ccc21	1.5
CCOc1ccc(-c2cc(C(=O)N3CCCC3)c3ccccc3n2)cc1	7.74
CC1(C)Cc2c(C#N)c(SCc3ccccc3)nc(N3CCOCC3)c2CO1	21.1
Cc1ncsc1CCC(=O)N1CCCC(Nc2ccc(F)c(F)c2)C1 (stereo unspecified)	-0.04
Cc1c(C(=O)N2CCN(Cc3ccccc3)CC2)oc2c1C(=O)CCC2	1.2
COc1ccc(NC(=O)c2cc3c(s2)CCC3)cc1S(=O)(=O)N1CCOCC1	3.05

SMILES	inhibition [%]
COc1ccc(OCc2cc(C(=O)NCC(C)Oc3cccnc3)no2)c(Cl)c1 (stereo unspecified)	17.6
Cc1ccc(C)c(OCc2cc(C(=O)NC3CCOC(C)(C)C3)no2)c1 (stereo unspecified)	-3.07
Cc1c(C(=O)NCc2ccccn2)sc2nc(-c3ccc(F)cc3)cn12	-9.75
CCOC(=O)Cn1c(=NC(=O)C2CC2)sc2c(C)cc(C)cc21	7.17
COc1ccc(OC(=O)c2cccc([N+](=O)[O-])c2)c(C(=O)/C=C/c2cccs2)c1	29.4
Cc1sc2ncnc(N3CCC(C(=O)NNC(=O)c4ccccc4Cl)CC3)c2c1C	-8.75
O=C(COC(=O)c1ccc([N+](=O)[O-])s1)NCc1ccc(F)cc1	15.1
Cc1ccc(Oc2nc(CN3CCOCC3)nc3sc4c(c23)CCC(C)C4)cc1C (stereo unspecified)	99.4
C=CCN=c1scc(-c2ccc(F)cc2)n1/N=C/c1ccccn1	34.9
COc1ccc(C(=O)N2CCCC(Nc3ccc(C)c(C)c3)C2)c(OC)n1 (stereo unspecified)	6.57
O=C(Cc1ccc(Cl)cc1)Nc1cccc(-c2nnc(-c3ccco3)o2)c1	-2.08
CCOCC(=O)N1CCN(c2ccc(F)cc2)CC1	20.8
Cc1ccc(C)c(CSc2nnc(C)c(=O)n2N)c1	-2.89
COc1ccc(-c2cc(C(F)(F)F)nc(SCC(=O)Nc3sc4c(c3C#N)CCC4)n2)cc1	44.3
COc1ccc(N2CCN(C(=O)c3cccc(NC4=NC5CS(=O)(=O)CC5S4)c3)CC2)cc1 (stereo unspecified)	6.17
CC(C)NC(=O)Cn1c(=O)n(CC(=O)N2CCCCC2)c(=O)c2sccc21	6.81
CS(=O)(=O)N(CC(=O)NCc1ccc2c(c1)OCO2)c1ccccc1	-3
COC(=O)c1ccccc1SCC(=O)Nc1ccc(N2CCOCC2)cc1	-1.55
